Results are given in words; binding and its absence hold for the method and conditions named. Binding seen in cells or lysates may run through a third protein. Some results given as binding are weak or reduced against the parent protein; the word gives no strength.

By UniProt entry, the sequences of proteins in these tests, tags left out. Residues count along the entry.
UniProt P11798: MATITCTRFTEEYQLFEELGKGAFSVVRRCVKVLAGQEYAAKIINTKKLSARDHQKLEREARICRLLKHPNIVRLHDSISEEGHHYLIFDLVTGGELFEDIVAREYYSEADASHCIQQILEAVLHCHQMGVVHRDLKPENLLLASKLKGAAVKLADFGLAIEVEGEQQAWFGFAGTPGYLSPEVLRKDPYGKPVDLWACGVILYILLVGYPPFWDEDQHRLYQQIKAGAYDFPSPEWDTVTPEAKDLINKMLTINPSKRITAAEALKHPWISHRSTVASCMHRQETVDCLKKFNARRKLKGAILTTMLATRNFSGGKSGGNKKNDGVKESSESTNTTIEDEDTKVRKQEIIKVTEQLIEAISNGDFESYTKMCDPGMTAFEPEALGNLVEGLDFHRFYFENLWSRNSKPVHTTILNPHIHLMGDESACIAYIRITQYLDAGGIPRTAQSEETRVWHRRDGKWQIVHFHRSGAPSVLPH
UniProt Q01097, residues 27-1482: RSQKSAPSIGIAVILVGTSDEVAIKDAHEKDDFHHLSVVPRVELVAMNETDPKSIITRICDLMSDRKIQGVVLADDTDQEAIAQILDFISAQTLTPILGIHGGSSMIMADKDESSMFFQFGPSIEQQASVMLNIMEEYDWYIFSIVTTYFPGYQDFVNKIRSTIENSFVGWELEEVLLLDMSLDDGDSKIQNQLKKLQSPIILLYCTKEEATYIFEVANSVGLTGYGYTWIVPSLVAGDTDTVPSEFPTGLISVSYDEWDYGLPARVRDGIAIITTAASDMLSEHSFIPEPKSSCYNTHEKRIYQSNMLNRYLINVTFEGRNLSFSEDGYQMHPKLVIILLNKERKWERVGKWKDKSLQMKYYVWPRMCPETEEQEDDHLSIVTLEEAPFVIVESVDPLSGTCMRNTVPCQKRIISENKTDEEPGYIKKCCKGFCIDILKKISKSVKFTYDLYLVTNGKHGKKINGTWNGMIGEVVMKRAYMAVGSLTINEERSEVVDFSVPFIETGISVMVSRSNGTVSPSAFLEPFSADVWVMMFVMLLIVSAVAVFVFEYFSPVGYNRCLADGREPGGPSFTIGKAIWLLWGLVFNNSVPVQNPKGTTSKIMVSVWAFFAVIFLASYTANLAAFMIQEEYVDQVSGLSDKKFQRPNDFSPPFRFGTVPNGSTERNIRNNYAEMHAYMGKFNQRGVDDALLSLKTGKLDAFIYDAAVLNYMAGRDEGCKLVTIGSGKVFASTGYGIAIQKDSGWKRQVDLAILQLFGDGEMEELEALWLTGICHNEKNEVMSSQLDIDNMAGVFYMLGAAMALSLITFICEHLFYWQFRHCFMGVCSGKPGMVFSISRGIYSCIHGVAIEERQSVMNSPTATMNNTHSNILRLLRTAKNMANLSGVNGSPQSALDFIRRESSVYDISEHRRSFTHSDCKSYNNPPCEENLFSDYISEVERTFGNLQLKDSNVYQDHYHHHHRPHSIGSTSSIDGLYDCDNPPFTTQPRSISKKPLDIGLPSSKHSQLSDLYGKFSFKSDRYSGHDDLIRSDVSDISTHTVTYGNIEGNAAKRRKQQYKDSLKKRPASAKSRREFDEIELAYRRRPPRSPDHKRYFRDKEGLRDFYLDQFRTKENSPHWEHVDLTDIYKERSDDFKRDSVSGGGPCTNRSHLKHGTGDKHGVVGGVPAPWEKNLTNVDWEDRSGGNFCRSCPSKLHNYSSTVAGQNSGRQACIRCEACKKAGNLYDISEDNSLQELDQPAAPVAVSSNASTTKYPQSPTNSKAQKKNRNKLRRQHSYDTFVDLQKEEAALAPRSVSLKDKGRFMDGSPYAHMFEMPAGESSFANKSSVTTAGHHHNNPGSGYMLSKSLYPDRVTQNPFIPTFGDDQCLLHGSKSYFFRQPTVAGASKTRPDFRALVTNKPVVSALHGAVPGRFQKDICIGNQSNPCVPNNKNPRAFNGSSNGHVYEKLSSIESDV
UniProt Q4ACU6: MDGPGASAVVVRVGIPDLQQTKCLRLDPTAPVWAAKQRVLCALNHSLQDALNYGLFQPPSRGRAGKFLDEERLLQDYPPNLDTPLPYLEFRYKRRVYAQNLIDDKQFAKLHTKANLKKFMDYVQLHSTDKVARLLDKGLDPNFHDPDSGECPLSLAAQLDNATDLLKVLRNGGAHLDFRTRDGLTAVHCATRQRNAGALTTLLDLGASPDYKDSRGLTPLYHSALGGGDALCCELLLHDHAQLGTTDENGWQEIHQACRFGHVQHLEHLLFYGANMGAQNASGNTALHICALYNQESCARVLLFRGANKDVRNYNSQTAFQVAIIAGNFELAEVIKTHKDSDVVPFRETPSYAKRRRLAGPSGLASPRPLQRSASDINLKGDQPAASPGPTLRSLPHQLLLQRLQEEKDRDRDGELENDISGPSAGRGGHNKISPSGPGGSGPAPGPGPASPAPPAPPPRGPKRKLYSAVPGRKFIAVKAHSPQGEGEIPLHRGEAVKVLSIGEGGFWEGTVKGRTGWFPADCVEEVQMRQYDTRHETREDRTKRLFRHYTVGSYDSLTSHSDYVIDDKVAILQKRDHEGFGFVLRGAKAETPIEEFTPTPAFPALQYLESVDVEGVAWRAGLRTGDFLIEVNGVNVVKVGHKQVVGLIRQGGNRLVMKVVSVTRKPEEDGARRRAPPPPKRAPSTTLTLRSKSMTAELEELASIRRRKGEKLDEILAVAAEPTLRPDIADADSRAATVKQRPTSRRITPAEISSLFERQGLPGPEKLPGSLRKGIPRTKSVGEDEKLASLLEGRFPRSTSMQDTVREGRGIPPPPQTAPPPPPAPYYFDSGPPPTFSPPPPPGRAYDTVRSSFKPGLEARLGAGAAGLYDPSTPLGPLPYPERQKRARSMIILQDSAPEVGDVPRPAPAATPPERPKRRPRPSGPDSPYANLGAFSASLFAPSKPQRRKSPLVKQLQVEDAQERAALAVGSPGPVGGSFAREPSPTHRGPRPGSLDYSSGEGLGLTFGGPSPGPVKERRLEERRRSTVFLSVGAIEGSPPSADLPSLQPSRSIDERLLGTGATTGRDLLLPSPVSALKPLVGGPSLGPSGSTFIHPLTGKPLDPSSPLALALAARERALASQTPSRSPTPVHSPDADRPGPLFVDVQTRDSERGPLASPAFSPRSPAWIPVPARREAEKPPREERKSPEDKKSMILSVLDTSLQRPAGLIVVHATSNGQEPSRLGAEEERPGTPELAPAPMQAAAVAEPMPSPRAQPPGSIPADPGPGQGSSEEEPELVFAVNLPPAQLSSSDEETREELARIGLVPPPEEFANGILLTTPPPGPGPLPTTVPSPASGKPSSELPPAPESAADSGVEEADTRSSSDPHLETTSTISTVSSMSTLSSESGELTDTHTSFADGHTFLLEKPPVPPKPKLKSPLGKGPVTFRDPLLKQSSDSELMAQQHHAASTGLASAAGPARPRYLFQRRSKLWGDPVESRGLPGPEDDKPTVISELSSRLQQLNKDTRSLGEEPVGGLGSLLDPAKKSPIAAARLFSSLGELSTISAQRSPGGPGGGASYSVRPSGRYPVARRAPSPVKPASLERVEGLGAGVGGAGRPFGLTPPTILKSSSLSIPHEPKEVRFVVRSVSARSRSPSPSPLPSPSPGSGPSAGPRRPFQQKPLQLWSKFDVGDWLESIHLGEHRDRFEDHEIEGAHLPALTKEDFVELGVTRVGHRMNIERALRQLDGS
UniProt O88196: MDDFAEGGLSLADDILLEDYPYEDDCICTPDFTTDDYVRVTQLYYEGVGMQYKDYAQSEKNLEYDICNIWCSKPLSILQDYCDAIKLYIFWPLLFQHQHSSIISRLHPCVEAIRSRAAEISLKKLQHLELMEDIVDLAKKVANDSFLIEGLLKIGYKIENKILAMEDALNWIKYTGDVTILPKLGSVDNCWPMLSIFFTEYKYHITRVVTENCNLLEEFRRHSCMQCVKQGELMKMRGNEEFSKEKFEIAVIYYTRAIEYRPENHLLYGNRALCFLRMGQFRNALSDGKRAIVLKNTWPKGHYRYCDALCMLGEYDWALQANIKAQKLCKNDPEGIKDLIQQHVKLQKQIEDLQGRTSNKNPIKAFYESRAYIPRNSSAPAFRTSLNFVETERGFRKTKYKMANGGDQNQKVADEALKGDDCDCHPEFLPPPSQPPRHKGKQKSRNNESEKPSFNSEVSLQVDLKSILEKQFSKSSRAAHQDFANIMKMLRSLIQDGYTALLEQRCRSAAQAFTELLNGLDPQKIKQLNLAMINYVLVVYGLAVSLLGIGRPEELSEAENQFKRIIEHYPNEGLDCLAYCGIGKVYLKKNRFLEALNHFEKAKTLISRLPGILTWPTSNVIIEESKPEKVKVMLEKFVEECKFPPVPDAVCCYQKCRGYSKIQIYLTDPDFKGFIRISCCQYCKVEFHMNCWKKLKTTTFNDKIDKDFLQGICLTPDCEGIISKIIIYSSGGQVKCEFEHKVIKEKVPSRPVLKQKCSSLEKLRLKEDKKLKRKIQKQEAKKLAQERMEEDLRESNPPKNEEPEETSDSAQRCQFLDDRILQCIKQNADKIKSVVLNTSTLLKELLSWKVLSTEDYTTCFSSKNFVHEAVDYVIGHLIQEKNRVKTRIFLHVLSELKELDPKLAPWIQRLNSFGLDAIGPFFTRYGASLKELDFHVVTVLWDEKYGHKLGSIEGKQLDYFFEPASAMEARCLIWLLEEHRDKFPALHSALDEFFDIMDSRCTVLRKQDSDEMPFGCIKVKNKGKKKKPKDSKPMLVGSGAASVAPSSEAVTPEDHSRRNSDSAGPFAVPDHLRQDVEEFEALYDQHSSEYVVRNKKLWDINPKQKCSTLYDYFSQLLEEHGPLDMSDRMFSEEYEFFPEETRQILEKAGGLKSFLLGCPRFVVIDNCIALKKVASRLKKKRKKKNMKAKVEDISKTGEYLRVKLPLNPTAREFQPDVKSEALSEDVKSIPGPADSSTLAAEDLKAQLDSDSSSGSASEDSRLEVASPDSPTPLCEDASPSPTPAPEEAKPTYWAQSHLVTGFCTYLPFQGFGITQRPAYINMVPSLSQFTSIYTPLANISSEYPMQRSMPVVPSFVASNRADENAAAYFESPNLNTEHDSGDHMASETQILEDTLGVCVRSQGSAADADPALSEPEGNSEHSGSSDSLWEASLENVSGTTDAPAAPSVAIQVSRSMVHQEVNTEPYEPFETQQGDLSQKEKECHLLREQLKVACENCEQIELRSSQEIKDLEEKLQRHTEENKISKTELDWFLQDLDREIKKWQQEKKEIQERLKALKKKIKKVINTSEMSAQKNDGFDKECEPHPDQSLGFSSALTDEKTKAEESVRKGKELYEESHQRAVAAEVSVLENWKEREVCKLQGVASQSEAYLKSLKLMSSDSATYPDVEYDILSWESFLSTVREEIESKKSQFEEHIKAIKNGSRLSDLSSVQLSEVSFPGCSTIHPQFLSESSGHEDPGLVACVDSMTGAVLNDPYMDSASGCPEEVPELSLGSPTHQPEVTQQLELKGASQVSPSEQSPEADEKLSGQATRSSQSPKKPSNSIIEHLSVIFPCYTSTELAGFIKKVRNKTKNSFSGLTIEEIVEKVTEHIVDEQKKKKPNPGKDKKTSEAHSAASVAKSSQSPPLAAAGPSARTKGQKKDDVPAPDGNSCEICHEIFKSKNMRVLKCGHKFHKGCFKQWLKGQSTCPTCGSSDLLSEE

From PMC5492163 come the findings set out here.

Test [1] deals with T1, p140Cap (mouse (endogenous in synaptosomes of the telencephalon)) (UniProt Q9QWI6).
T1 sequence: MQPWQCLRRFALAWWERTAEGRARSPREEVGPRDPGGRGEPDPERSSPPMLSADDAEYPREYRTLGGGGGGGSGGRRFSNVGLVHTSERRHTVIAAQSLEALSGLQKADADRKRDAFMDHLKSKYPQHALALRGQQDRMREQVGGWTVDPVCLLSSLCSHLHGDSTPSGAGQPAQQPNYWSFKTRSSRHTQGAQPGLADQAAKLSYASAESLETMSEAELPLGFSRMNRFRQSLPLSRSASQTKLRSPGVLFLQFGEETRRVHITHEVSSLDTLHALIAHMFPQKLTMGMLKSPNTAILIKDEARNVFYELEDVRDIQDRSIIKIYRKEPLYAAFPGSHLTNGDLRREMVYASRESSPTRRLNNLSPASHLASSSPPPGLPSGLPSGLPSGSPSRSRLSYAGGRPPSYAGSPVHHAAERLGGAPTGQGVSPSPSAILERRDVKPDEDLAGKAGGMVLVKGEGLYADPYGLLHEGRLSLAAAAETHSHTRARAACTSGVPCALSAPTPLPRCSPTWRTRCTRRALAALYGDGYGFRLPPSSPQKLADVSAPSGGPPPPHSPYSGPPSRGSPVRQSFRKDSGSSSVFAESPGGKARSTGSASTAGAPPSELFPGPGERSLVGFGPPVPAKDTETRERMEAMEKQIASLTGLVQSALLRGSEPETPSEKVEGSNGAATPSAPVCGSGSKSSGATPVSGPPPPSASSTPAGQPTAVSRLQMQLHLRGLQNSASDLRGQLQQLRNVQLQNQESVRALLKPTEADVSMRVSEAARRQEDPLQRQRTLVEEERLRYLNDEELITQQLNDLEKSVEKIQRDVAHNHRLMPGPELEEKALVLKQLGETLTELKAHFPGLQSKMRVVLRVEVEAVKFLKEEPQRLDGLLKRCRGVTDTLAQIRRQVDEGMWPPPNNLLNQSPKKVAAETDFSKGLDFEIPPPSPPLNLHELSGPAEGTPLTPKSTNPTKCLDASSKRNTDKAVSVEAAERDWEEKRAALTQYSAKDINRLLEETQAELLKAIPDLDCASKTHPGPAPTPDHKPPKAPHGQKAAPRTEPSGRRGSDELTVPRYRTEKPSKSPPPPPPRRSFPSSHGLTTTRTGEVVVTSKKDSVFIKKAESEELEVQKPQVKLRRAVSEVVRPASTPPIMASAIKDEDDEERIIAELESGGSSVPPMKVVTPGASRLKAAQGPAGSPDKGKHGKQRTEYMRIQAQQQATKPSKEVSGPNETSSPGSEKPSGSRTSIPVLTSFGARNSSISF
The test is described as follows: co-IP; p140Cap immunoprecipitated with Mab 2A8 on Dynabeads from crude synaptosomal extracts of WT and p140Cap KO mice; Western blot of the partners.

Test [2] concerns the target Grin2a (mouse (endogenous in synaptosomes of the telencephalon)) (UniProt P35436). The test is described as follows: co-IP; reverse: Dlg4/PSD95 or Grin2a/NR2A immunoprecipitated from synaptosomes of WT and p140Cap KO mice, control IP with IgGs; Western blot for p140Cap. On the technique in general: In western blotting, separated proteins are transferred to a membrane and probed.

Take “Camk2a (from UniProt P11798 1-478) (enzyme)”: the binding result in test [1] is given as “binds”.

As for Citron-N (from UniProt P49025-3 1-1597), the binding entry in test [1] is listed as “binds”.

Take “Grin2a (from UniProt P35436 23-1464) (receptor)”: the binding result in test [1] is listed as “binds”.

Regarding “Grin2b (from UniProt Q01097 27-1482) (receptor)”, the binding entry in test [1] is on record as “binds”.

Regarding Shank3 (from UniProt Q4ACU6 1-1730), the binding result in test [1] is given as “binds”.

On to Ttc3 (from UniProt O88196 1-1979), for which the binding entry in test [1] is listed as “no binding”.

B1: p140Cap (protein, UniProt Q9QWI6 1-1250)
chain: MQPWQCLRRFALAWWERTAEGRARSPREEVGPRDPGGRGEPDPERSSPPMLSADDAEYPREYRTLGGGGGGGSGGRRFSNVGLVHTSERRHTVIAAQSLEALSGLQKADADRKRDAFMDHLKSKYPQHALALRGQQDRMREQVGGWTVDPVCLLSSLCSHLHGDSTPSGAGQPAQQPNYWSFKTRSSRHTQGAQPGLADQAAKLSYASAESLETMSEAELPLGFSRMNRFRQSLPLSRSASQTKLRSPGVLFLQFGEETRRVHITHEVSSLDTLHALIAHMFPQKLTMGMLKSPNTAILIKDEARNVFYELEDVRDIQDRSIIKIYRKEPLYAAFPGSHLTNGDLRREMVYASRESSPTRRLNNLSPASHLASSSPPPGLPSGLPSGLPSGSPSRSRLSYAGGRPPSYAGSPVHHAAERLGGAPTGQGVSPSPSAILERRDVKPDEDLAGKAGGMVLVKGEGLYADPYGLLHEGRLSLAAAAETHSHTRARAACTSGVPCALSAPTPLPRCSPTWRTRCTRRALAALYGDGYGFRLPPSSPQKLADVSAPSGGPPPPHSPYSGPPSRGSPVRQSFRKDSGSSSVFAESPGGKARSTGSASTAGAPPSELFPGPGERSLVGFGPPVPAKDTETRERMEAMEKQIASLTGLVQSALLRGSEPETPSEKVEGSNGAATPSAPVCGSGSKSSGATPVSGPPPPSASSTPAGQPTAVSRLQMQLHLRGLQNSASDLRGQLQQLRNVQLQNQESVRALLKPTEADVSMRVSEAARRQEDPLQRQRTLVEEERLRYLNDEELITQQLNDLEKSVEKIQRDVAHNHRLMPGPELEEKALVLKQLGETLTELKAHFPGLQSKMRVVLRVEVEAVKFLKEEPQRLDGLLKRCRGVTDTLAQIRRQVDEGMWPPPNNLLNQSPKKVAAETDFSKGLDFEIPPPSPPLNLHELSGPAEGTPLTPKSTNPTKCLDASSKRNTDKAVSVEAAERDWEEKRAALTQYSAKDINRLLEETQAELLKAIPDLDCASKTHPGPAPTPDHKPPKAPHGQKAAPRTEPSGRRGSDELTVPRYRTEKPSKSPPPPPPRRSFPSSHGLTTTRTGEVVVTSKKDSVFIKKAESEELEVQKPQVKLRRAVSEVVRPASTPPIMASAIKDEDDEERIIAELESGGSSVPPMKVVTPGASRLKAAQGPAGSPDKGKHGKQRTEYMRIQAQQQATKPSKEVSGPNETSSPGSEKPSGSRTSIPVLTSFGARNSSISF
B1: in test [2], the binding entry is listed as “binds”.

B2: Shank2 (protein, UniProt Q80Z38 1-1476)
chain: MKSLLNAFTKKEVPFREAPAYSNRRRRPPNTLAAPRVLLRSNSDNNLNAGAPEWAVCSAATSHRSLSPQLLQQTPSKPDGATKSLGSYTPGPRSRSPSLNRLGGTAEDGKRTQPHWHVGSPFTPGANKDSLSTFEYPGPRRKLYSAVPGRLFVAVKPYQPQVDGEIPLHRGDRVKVLSIGEGGFWEGSARGHIGWFPAECVEEVQCKPRDSQAETRADRSKKLFRHYTVGSYDSFDAASDCIIEDKTVVLQKKDNEGFGFVLRGAKADTPIEEFTPTPAFPALQYLESVDEGGVAWQAGLRTGDFLIEVNNENVVKVGHRQVVNMIRQGGNHLILKVVTVTRNLDPDDTARKKAPPPPKRAPTTALTLRSKSMTAELEELGLSLVDKASVRKKKDKPEEIVPASKPSRTAENVAIESRVATIKQRPTSRCFPAASDVNSVYERQGIAVMTPTVPGSPKGPFLGLPRGTMRRQKSIDSRIFLSGITEEERQFLAPPMLKFTRSLSMPDTSEDIPPPPQSVPPSPPPPSPTTYNCPRSPTPRVYGTIKPAFNQNPVVAKVPPATRSDTVATMMREKGMFYRRELDRFSLDSEDVYSRSPAPQAAFRTKRGQMPENPYSEVGKIASKAVYVPAKPARRKGVLVKQSNVEDSPEKTCSIPIPTIIVKEPSTSSSGKSSQGSSMEIDPQATEPGQLRPDDSLTVSSPFAAAIAGAVRDREKRLEARRNSPAFLSTDLGDEDVGLGPPAPRMQASKFPEEGGFGDEDETEQPLLPTPGAAPRELENHFLGGGEAGAQGEAGGPLSSTSKAKGPESGPAAPLKSSSPAGPENYVHPLTGRLLDPSSPLALALSARDRAMQESQQGHKGEAPKADLNKPLYIDTKMRPSVESGFPPVTRQNTRGPLRRQETENKYETDLGKDRRADDKKNMLINIVDTAQQKSAGLLMVHTVDVPMAGPPLEEEEDREDGDTKPDHSPSTVPEGVPKTEGALQISAAPEPAVAPGRTIVAAGSVEEAVILPFRIPPPPLASVDLDEDFLFTEPLPPPLEFANSFDIPDDRAASVPALADLVKQKKNDTSQPPTLNSSQPANSTDSKKPAGISNCLPSSFLPPPESFDAVTDSGIEEVDSRSSSDHHLETTSTISTVSSISTLSSEGGESMDTCTVYADGQAFVVDKPPVPPKPKMKPIVHKSNALYQDTLPEEDTDGFVIPPPAPPPPPGSAQAGVAKVIQPRTSKLWGDVPEVKSPILSGPKANVISELNSILQQMNRGKSVKPGEGLELPVGAKSANLAPRSPEVMSTVSGTRSTTVTFTVRPGTSQPITLQSRPPDYESRTSGPRRAPSPVVSPTELSKEILPTPPPPSATAASPSPTLSDVFSLPSQSPAGDLFGLNPAGRSRSPSPSILQQPISNKPFTTKPVHLWTKPDVADWLESLNLGEHKETFMDNEIDGSHLPNLQKEDLIDLGVTRVGHRMNIERALKQLLDR
Take B2: the binding entry in test [1] is listed as “binds”.

B3: Homer1 (protein, UniProt Q9Z2Y3 1-366)
chain: MGEQPIFSTRAHVFQIDPNTKKNWVPTSKHAVTVSYFYDSTRNVYRIISLDGSKAIINSTITPNMTFTKTSQKFGQWADSRANTVYGLGFSSEHHLSKFAEKFQEFKEAARLAKEKSQEKMELTSTPSQESAGGDLQSPLTPESINGTDDERTPDVTQNSEPRAEPTQNALPFPHSAGDRTQALSHASSAISKHWEAELATLKGNNAKLTAALLESTANVKQWKQQLAAYQEEAERLHKRVTELECVSSQANAVHSHKTELNQTVQELEETLKVKEEEIERLKQEIDNARELQEQRDSLTQKLQEVEIRNKDLEGQLSDLEQRLEKSQNEQEAFRSNLKTLLEILDGKIFELTELRDNLAKLLECS
In the case of B3, the binding entry in test [1] is reported as “binds”.

B4: Cadm1/Syncam (protein, UniProt Q8R5M8 48-456)
chain: QNLFTKDVTVIEGEVATISCQVNKSDDSVIQLLNPNRQTIYFRDFRPLKDSRFQLLNFSSSELKVSLTNVSISDEGRYFCQLYTDPPQESYTTITVLVPPRNLMIDIQKDTAVEGEEIEVNCTAMASKPATTIRWFKGNKELKGKSEVEEWSDMYTVTSQLMLKVHKEDDGVPVICQVEHPAVTGNLQTQRYLEVQYKPQVHIQMTYPLQGLTREGDAFELTCEAIGKPQPVMVTWVRVDDEMPQHAVLSGPNLFINNLNKTDNGTYRCEASNIVGKAHSDYMLYVYDPPTTIPPPTTTTTTTTTTTTTILTIITDTTATTEPAVHDSRAGEEGTIGAVDHAVIGGVVAVVVFAMLCLLIILGRYFARHKGTYFTHEAKGADDAADADTAIINAEGGQNNSEEKKEYFI
In the case of B4, the binding entry in test [1] is on record as “binds”.
